Relative growth data for 63 molecules are collected here from the supplement of paper PMC9446081.

The campaign covered roughly 39,000 compounds. About 220 (0.56%) showed activity. The list shows a part of the results.
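Note: static incubation at 37 °C against the wild-type strain, values averaged over two biological replicates.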

This assay deals with Escherichia coli K-12 BW25113. Put plainly: relative growth (OD600 normalised to plate interquartile mean) (fraction); higher = less growth inhibition, active = 0.2 or less. The note with it: 50 µM; LB; incubation time: overnight (16-24 h).
With `C[C@H]1CN([C@@H](C)CO)C(=O)c2cc(NS(=O)(=O)c3ccccc3)ccc2O[C@@H]1CN(C)Cc1ccc(Oc2ccccc2)cc1`, the relative growth is inactive: 1.01. Then `COc1ccc(CN(C)C[C@@H]2OCCCC[C@H](C)Oc3ccc(NC(=O)NC4CCCCC4)cc3C(=O)N([C@@H](C)CO)C[C@@H]2C)cc1`, with inactive: 0.982; and `CC=Cc1ccc2n(c1=O)C[C@@H]1[C@@H](CO)[C@H](C(=O)NCCc3cn(C)cn3)[C@H]2N1C(=O)C1CC1`, with inactive: 0.99; and `O=C(C[C@H]1CC[C@H]2[C@@H](COC[C@@H](O)CN2S(=O)(=O)c2cccc(Cl)c2)O1)NCc1ccncn1`, with inactive: 1.03. As for `O=C(C[C@@H]1CC=CCC[C@H](Cc2ccc(F)cc2)C(=O)OC[C@@H](Cc2c[nH]c3ccccc23)NC1=O)N[C@@H](CO)Cc1ccccc1`, the relative growth was inactive: 1.04. Take `C[C@@H]1CN([C@@H](C)CO)C(=O)c2cc(NS(=O)(=O)c3ccc(F)cc3)ccc2O[C@@H](C)CCCCO[C@H]1CN(C)CC1CCCCC1`: the relative growth is inactive: 0.983.

For the molecule `COc1ccc(CN(C)C[C@H]2OCCCC[C@H](C)Oc3ccc(NC(=O)c4ccccc4)cc3C(=O)N([C@H](C)CO)C[C@@H]2C)cc1`, the relative growth was inactive: 0.933. In the case of `C[C@@H]1CN([C@@H](C)CO)C(=O)Cc2cc(NC(=O)Nc3ccc4c(c3)OCO4)ccc2O[C@H]1CN(C)Cc1ccc(Oc2ccccc2)cc1`, the relative growth is inactive: 1.02. As to `C[C@H](CCC(=O)NCCS(=O)(=O)O)[C@H]1CC[C@H]2[C@@H]3[C@H](O)C[C@@H]4C[C@H](O)CC[C@]4(C)[C@H]3C[C@H](O)[C@]12C`, the relative growth was inactive: 1.01.

For `O=C(C[C@H]1CC[C@H]2[C@@H](COC[C@@H](O)CN2C(=O)Nc2ccc(Cl)c(Cl)c2)O1)NCc1ccncc1`, the relative growth is inactive: 0.987.

Take `C[C@@H]1CCCCO[C@@H](CN(C)C)[C@@H](C)CN([C@@H](C)CO)C(=O)c2cc(NC(=O)Nc3cccc4ccccc34)ccc2O1`: the relative growth is inactive: 1. On to `C[C@@H]1CN([C@H](C)CO)C(=O)c2cc(NC(=O)Cc3cn(C)c4ccccc34)ccc2O[C@@H]1CN(C)CC1CCCCC1`, for which the relative growth is inactive: 0.938.

With `C[C@H]1CN([C@@H](C)CO)C(=O)Cc2cc(NS(=O)(=O)c3cn(C)cn3)ccc2O[C@@H]1CN(C)CC1CC1`, the relative growth was inactive: 0.99. The figure for `COc1ccc(NC(=O)Nc2ccc3c(c2)C(=O)N([C@H](C)CO)C[C@H](C)[C@H](CN(C)S(=O)(=O)c2cn(C)cn2)O3)cc1` is inactive: 0.978. Regarding `COCC#Cc1cnc2c(c1)C(=O)N([C@@H](C)CO)C[C@@H](C)[C@H](CN(C)S(=O)(=O)c1ccccc1)O2`, the relative growth was inactive: 1. `C[C@@H]1CN([C@H](C)CO)C(=O)Cc2cc(NC(=O)Nc3ccc(F)cc3)ccc2O[C@@H]1CN(C)C(=O)Nc1cccc2ccccc12`: the relative growth was inactive: 0.994. As to `Cc1ccc(S(=O)(=O)N(C)C[C@@H]2Oc3ccc(NS(=O)(=O)c4ccc(F)cc4)cc3C(=O)N([C@@H](C)CO)C[C@H]2C)cc1`, the relative growth is inactive: 0.996.

For the molecule `C[C@H](CO)N1C[C@H](C)[C@H](CN(C)Cc2ccncc2)Oc2ccc(NS(=O)(=O)c3ccccc3)cc2CC1=O`, the relative growth was inactive: 1.03.

`CCc1cn([C@H]2C[C@H](O)[C@@H](CO)O2)c(=O)[nH]c1=O`: the relative growth was inactive: 0.887.

As to `C[C@@H]1CCCCO[C@@H](CN(C)CC2CCCCC2)[C@H](C)CN([C@H](C)CO)C(=O)c2cc(NS(=O)(=O)c3ccc(F)cc3)ccc2O1`, the relative growth is inactive: 0.99.

`O=C(C[C@@H]1CC[C@H]2[C@@H](COC[C@H](O)CN2C(=O)c2ccccn2)O1)NC1CCC1`: the relative growth was inactive: 0.986. For `CC(C)(C)NCC(O)COc1cccc2c1CC(O)C(O)C2` (stereo not drawn), the relative growth was inactive: 1.04. The figure for `CO[C@@H]1CN(C)C(=O)c2cc(NS(=O)(=O)c3ccccc3C)ccc2OC[C@@H](C)N(S(C)(=O)=O)C[C@H]1C` is inactive: 1.02. The figure for `C[C@@H]1CCCCO[C@@H](CN(C)S(C)(=O)=O)[C@H](C)CN([C@@H](C)CO)C(=O)c2cc(N(C)C)ccc2O1` is inactive: 0.983; for `C[C@@H]1C=CNN1C(=O)c1cccnc1` it is inactive: 0.998; for `C[C@H]1CN([C@@H](C)CO)C(=O)c2c(c3ccccc3n2C)-c2ccccc2CO[C@H]1CN(C)Cc1ccc(-c2ccccc2)cc1` it is inactive: 1.02. As to `O=C(C[C@H]1C[C@H]2c3cc(NS(=O)(=O)c4ccc(F)cc4)ccc3O[C@H]2[C@H](CO)O1)NCc1ccccn1`, the relative growth was inactive: 0.998.

In the case of `C[C@@H]1CN([C@@H](C)CO)C(=O)c2c(c3ccccc3n2C)-c2ccccc2CO[C@H]1CN(C)C(=O)Nc1cccc(Cl)c1Cl`, the relative growth was inactive: 1.03.

Consider `Cc1noc(C)c1S(=O)(=O)Nc1ccc2c(c1)C(=O)N([C@@H](C)CO)C[C@@H](C)[C@@H](CN(C)Cc1ccccc1)O2`, for which the relative growth was inactive: 1. With `C[C@H](CO)N1C[C@H](C)[C@H](CN(C)C(=O)Nc2cccc3ccccc23)Oc2ccc(NC(=O)Nc3ccc(C(F)(F)F)cc3)cc2C1=O`, the relative growth was inactive: 1.01.

For the molecule `O=C1O[C@H](c2ccccc2)[C@H](c2ccccc2)N2[C@H]1[C@@H](C(=O)NC[C@@H](O)c1ccccc1)[C@]1(C(=O)Nc3ccc(C#CC4=CCCCC4)cc31)[C@H]2c1ccccc1OCCO`, the relative growth is inactive: 1.04. With `C[C@H](CO)N1C[C@H](C)[C@H](CN(C)Cc2ccncc2)Oc2ncc(C#Cc3cccc(F)c3)cc2C1=O`, the relative growth is inactive: 0.985. Take `C[C@@H]1CN([C@@H](C)CO)C(=O)c2cc(-c3cccc(C#N)c3)cnc2O[C@@H]1CN(C)C(=O)C1CCOCC1`: the relative growth was inactive: 0.995.

`COc1ccc(S(N)(=O)=O)cc1OC`: the relative growth is inactive: 1.02. On to `COc1ccc(NC(=O)Nc2ccc3c(c2)CC(=O)N([C@@H](C)CO)C[C@@H](C)[C@@H](CN(C)CC2CCCCC2)O3)cc1`, for which the relative growth was inactive: 0.982. Then `Cn1c(=O)[nH]c2nc[nH]c2c1=O`, with inactive: 1.02; and `C[C@@H]1CCCCO[C@@H](CN(C)C(=O)NC2CCCCC2)[C@@H](C)CN([C@H](C)CO)C(=O)c2cc(NC(=O)Nc3cccc4ccccc34)ccc2O1`, with inactive: 1.05.

`Cc1noc(C)c1S(=O)(=O)N(C)C[C@@H]1Oc2ccc(N(C)C)cc2CC(=O)N([C@@H](C)CO)C[C@@H]1C`: the relative growth is inactive: 1.04. Then `C[C@H](CO)N1C[C@H](C)[C@@H](CN(C)C(=O)Cc2ccccn2)Oc2cc(C#Cc3ccccc3)ccc2S1(=O)=O`, with inactive: 1; and `C[C@@H]1CN([C@H](C)CO)C(=O)c2cc(NC(=O)Nc3ccc(C(F)(F)F)cc3)ccc2O[C@H]1CN(C)Cc1ccc2c(c1)OCO2`, with inactive: 0.763; and `C[C@H]1CN([C@@H](C)CO)C(=O)Cc2cc(NC(=O)Cn3cnnn3)ccc2O[C@H]1CN(C)CC1CC1`, with inactive: 0.983. `C[C@H]1CN([C@@H](C)CO)S(=O)(=O)c2ccc(C#Cc3ccccc3)cc2O[C@H]1CN(C)S(C)(=O)=O`: the relative growth was inactive: 1.02.

As to `CCS(=O)(=O)NCC[C@@H]1CC[C@@H](NS(=O)(=O)c2cccc(F)c2)[C@H](CO)O1`, the relative growth was inactive: 0.959.

Turning to `COc1ccc(S(=O)(=O)N(C)C[C@H]2Oc3ccc(N(C)C)cc3C(=O)N([C@H](C)CO)C[C@H]2C)cc1`, the relative growth is inactive: 1.01. The figure for `CC(C)NC(=O)N(C)C[C@H]1OCCCC[C@@H](C)Oc2ccc(NC(=O)C3CCCCC3)cc2C(=O)N([C@H](C)CO)C[C@@H]1C` is inactive: 1.01; for `O=C(c1cccnc1)N1CCOCC1` it is inactive: 0.917; for `OCC(S)CS` (stereo not drawn) it is inactive: 1.08. `CN(C)CC(=O)N1[C@@H](CO)[C@H](c2ccc(C3=CCCC3)cc2)C12CN(S(=O)(=O)Cc1ccccc1)C2`: the relative growth is inactive: 0.975. Take `COC(=O)[C@H](Cc1ccccc1)N1CC(/C=C/C2CC2)=C[C@@H]1[C@@H](O)CCn1cc(-c2ccc(C(=O)NO)s2)nn1`: the relative growth is inactive: 0.999. As to `COCC(=O)Nc1ccc2c(c1)[C@H]1C[C@@H](CC(=O)N3CCOCC3)O[C@@H](CO)[C@H]1O2`, the relative growth was inactive: 0.992.

On to `COc1ccc(S(=O)(=O)N(C)C[C@H]2Oc3ccc(NS(=O)(=O)c4cccs4)cc3CC(=O)N([C@@H](C)CO)C[C@H]2C)cc1`, for which the relative growth is inactive: 1.01. `C[C@@H]1CN([C@H](C)CO)C(=O)Cc2cc(NC(=O)Cc3ccccc3)ccc2O[C@@H]1CN(C)S(=O)(=O)c1cccs1`: the relative growth was inactive: 1.01.

For `CC(C)=CC1C(C(=O)O)C1(C)C` (stereo not drawn), the relative growth is inactive: 0.91. Turning to `C[C@H]1CN([C@@H](C)CO)C(=O)c2cc(NC(=O)c3ccncc3)ccc2O[C@@H]1CN(C)S(=O)(=O)c1cccs1`, the relative growth is inactive: 1.01. In the case of `C[C@@H]1CCCCO[C@@H](CN(C)Cc2ccccc2)[C@H](C)CN([C@H](C)CO)C(=O)c2cc(NC(=O)Nc3ccc4c(c3)OCO4)ccc2O1`, the relative growth is inactive: 1.04. `C[C@@H]1CN([C@H](C)CO)C(=O)c2cc(NC(=O)CCC(F)(F)F)ccc2O[C@@H](C)CCCCO[C@@H]1CN(C)CC1CCCCC1`: the relative growth was inactive: 0.98.

Regarding `CN(C)C(=O)C[C@@H]1C=C[C@@H](NC(=O)C2CCOCC2)[C@H](CO)O1`, the relative growth is inactive: 0.983. As to `C=CCN1CCC[C@@H]1C(=O)O`, the relative growth was inactive: 1.03.

With `CN(C)C(=O)C[C@H]1C=C[C@H](NC(=O)C2CC2)[C@H](CO)O1`, the relative growth is inactive: 0.959.

For `COc1ccc(S(=O)(=O)Nc2ccc3c(c2)OC[C@@H](C)N(C(=O)NC(C)C)C[C@@H](C)[C@H](OC)CN(C)C3=O)cc1`, the relative growth is inactive: 0.98. `Cc1cc(NC(=O)CCCC(=O)O)n(C)n1`: the relative growth is inactive: 1.04.

`CNC(=O)Cn1c(=O)c2c(N3CCN(C(=O)C4CC4)CC3)ccnc2n(C)c1=O`: the relative growth was inactive: 0.996. Turning to `COc1ccc(NC(=O)N(C)C[C@H]2OCCCC[C@H](C)Oc3ccc(NC(=O)NC4CCCCC4)cc3C(=O)N([C@H](C)CO)C[C@@H]2C)cc1`, the relative growth is inactive: 1.01.
